# Values joined by “and” are separate entries in the source; they are usually repeats but may differ in a detail not shown here. Equal entries are not always repeated. The whole screen tested about 390,000 compounds, of which about 4,000 (1%) were called active. The inconclusive results got no clear call from the source; some entries with a clear call stand among them for comparison. Calls come from the whole dose curve; as a rule, active = well fitted inhibition curve with a large enough effect; inconclusive = small, poorly fitted or top-dose-only effect; inactive = no such curve, though single readings can be large or run the other way. Potencies beside an inconclusive call are fits to weak or partial responses and may not hold up.
# Biological target: Thioredoxin reductase 1, cytoplasmic (Rattus norvegicus) (UniProt O89049)
# Test: qHTS Assay for Inhibitors of Mammalian Selenoprotein Thioredoxin Reductase 1 (TrxR1): qHTS; note: nearly all actives have a fitted effect of over 65% in size
# Details: recombinant rTrxR1, NADPH fluorescence consumption, selenite substrate; series mostly up to 114 µM; activity change, negative = inhibition: at the top concentration
# How it was run: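 Rat TrxR1 (90 nM in the dispensed reagent) was pre-reduced with 400 uM NADPH for 5 min at room temperature, then incubated with compound for 15 min. After 400 uM selenite was added, NADPH fluorescence (Ex 340/Em 450 nm) was followed for 8 min.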
# % is set by controls: 0 for no effect and ±100 for the full control effect; potency is the fitted concentration of half-maximal effect; tags give direction and shape of the fitted curve.
# Chain of UniProt O89049 (O89049 whole entry, looked up): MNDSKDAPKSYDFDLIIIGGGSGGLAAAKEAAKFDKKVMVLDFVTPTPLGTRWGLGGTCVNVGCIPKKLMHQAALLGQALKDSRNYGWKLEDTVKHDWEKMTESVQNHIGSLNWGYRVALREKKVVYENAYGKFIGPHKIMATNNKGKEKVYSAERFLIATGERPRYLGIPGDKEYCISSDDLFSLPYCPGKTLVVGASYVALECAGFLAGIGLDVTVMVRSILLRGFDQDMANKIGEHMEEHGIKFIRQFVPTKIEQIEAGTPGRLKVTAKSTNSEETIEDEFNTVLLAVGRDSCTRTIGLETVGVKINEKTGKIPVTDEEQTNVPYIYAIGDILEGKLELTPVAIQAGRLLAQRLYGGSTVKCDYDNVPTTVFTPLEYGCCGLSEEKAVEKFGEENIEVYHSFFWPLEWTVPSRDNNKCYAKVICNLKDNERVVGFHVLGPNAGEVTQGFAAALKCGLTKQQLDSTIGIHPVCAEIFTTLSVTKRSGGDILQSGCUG
SMILES,"activity change, negative = inhibition",Potency
Cc1ccccc1Nc1cc(C(=O)NC2CCCCC2)c2ccccc2n1,inactive: 51.7%,–
NC(=O)C1CCN(C(=O)/C=C/c2ccco2)CC1,–,"inconclusive: 79.4 µM [inhibitor, single point]"
O=C(CSc1nnc(Cc2cccs2)n1Cc1ccco1)Nc1cc(Cl)cc(Cl)c1,–,"inconclusive: 79.4 µM [inhibitor, single point]"
O=C1c2ccccc2-c2onc3ccc(Oc4ccccc4)c1c23,–,"inconclusive: 50.1 µM [inhibitor, partial curve, poor fit]"
CC(C)(CC(=O)NCc1ccc(Cl)cc1Cl)CC1=NS(=O)(=O)c2ccccc2N1,inactive: 8.84% [at 57.1 µM],–
CCOc1ccc(C(=O)NCC(=O)OCc2cc(C(C)=O)ccc2OC)cc1,–,"inconclusive: 25.1 µM [inhibitor, partial curve]"
Cc1ccnc2ncccc12,–,"inconclusive: 89.1 µM [inhibitor, single point]"
O=C(c1ccc(Br)o1)N1CCC(c2nc3ccccc3[nH]2)CC1,–,active: 44.7 µM
Oc1c(Cl)cc(Cl)c2cccnc12,–,"inconclusive: 56.2 µM [inhibitor, partial curve, poor fit]"
COc1cccc(CC(=O)Nc2ccc3nc(C)sc3c2)c1,inactive: 21.8% [at 57.1 µM],–
O=C(N/N=C/C(Cl)=C/c1ccc([N+](=O)[O-])cc1)C(=O)Nc1cccc(C(=O)O)c1,–,active: 79.4 µM
COc1cc(OC)cc(C(=O)N[C@H](C(=O)OCC(N)=O)C(C)C)c1,–,"inconclusive: 89.1 µM [inhibitor, single point]"
CC1CC(C)(C)NC(=S)N1CCCC(=O)Nc1ccc(F)c(F)c1 (centres undefined),inactive: -0.228%,–
COc1cc2c(cc1OC)C(C)N(C(=O)c1cc3c(=O)oc4ccc(C)cc4c3s1)CC2 (centres undefined),–,active: 79.4 µM
CN1C(=O)/C(=C/c2cn(CC(=O)N3CCCCC3)c3ccccc23)NC1=S,–,"inconclusive: 79.4 µM [inhibitor, partial curve]"
C[C@H](NC(=O)c1nc[nH]c1C(=O)NCc1ccc(CNC(=O)OC(C)(C)C)cc1)C(=O)OCc1ccccc1,inactive: 20.6%,–
COc1ccc(C(C[N+](=O)[O-])C2(c3ccc(OC)c(OC)c3)C(=O)c3ccccc3C2=O)cc1 (centres undefined),–,"inconclusive: 79.4 µM [inhibitor, partial curve]"
O=C(NCc1ccc(Cl)cc1)C(=O)NCC(c1ccc2c(c1)OCO2)N1CCOCC1 (centres undefined),inactive: 24.2% [at 57.1 µM],–
COCC(C)NC(=O)c1noc2c1CCc1cc(OC)ccc1-2 (centres undefined),–,active: 10 µM
CCn1c(COc2ccc3c(c2)CCCC3)nnc1SCC(=O)Nc1nccs1,–,"inconclusive: 0.631 µM [inhibitor, full curve]"
CN1CCN(C2=C(Cl)C(=O)c3ccccc3C2=O)CC1,–,"inconclusive: 0.501 µM [inhibitor, full curve, poor fit]"
Cc1cccc(/C=C/C(=O)c2cc(Br)ccc(=O)c2O)c1,–,"inconclusive: 1 µM [inhibitor, full curve, poor fit]"
COC(=O)c1ccccc1S(=O)(=O)N1CCC(C(=O)OCc2cccc(OC)c2OC)CC1,inactive: 11.5%,–

SMILES,"activity change, negative = inhibition",Potency
O=C(NNC(=O)c1ccncc1)Nc1cccc([N+](=O)[O-])c1,–,"inconclusive: 25.1 µM [inhibitor, partial curve, poor fit]"
CCOc1ccc(S(=O)(=O)Nc2nc3ccccc3nc2Cl)cc1,inactive: -2.5%,–
CC(C)CN(c1ccccc1)S(=O)(=O)c1nnc(NC(=O)C2CCCCC2)s1,inactive: -5.88%,–
O=C(O)c1cccc(NC(=S)NC(NC(=O)c2ccco2)C(Cl)(Cl)Cl)c1 (centres undefined),–,"inconclusive: 63.1 µM [inhibitor, partial curve, poor fit]"
CCOc1ccc(-c2nnc(SCC(=O)Nc3ccc4c(c3)c3ccccc3n4CC)n2N)cc1,inactive: 5.03%,–
CCN(CC)CCCNC1=C(Cl)C(=O)c2ccccc2C1=O,–,"inconclusive: 22.4 µM [inhibitor, single point]"
Cc1cccc(-c2ccc3c(c2)C2CC3CCN2)c1 (centres undefined),–,"inconclusive: 56.2 µM [inhibitor, partial curve, poor fit]"
COc1ccc(C(=O)NC(Cc2c[nH]c3ccccc23)C(=O)O)cc1 (centres undefined),inactive: 13.6%,–
COc1ccc2cc(C(c3nnnn3CCc3ccccc3)N3CCC(O)CC3)c(=O)[nH]c2c1 (centres undefined),–,"inconclusive: 56.2 µM [inhibitor, partial curve]"
COc1ccc(C(=O)Nc2sc3c(c2C#N)CCN(C(C)=O)C3)cc1,–,"inconclusive: 79.4 µM [inhibitor, single point]"
O=C1NC(=O)/C(=C\c2ccc(Br)o2)S1,–,"inconclusive: 14.1 µM [inhibitor, partial curve, poor fit]"
Cc1ccnc(NC(=O)c2cc(F)c(F)cc2Cl)n1,–,"inconclusive: 25.1 µM [inhibitor, single point]"
CCOC(=O)c1sc(N2C(=O)C(O)=C(C(=O)c3ccco3)C2c2ccc(C)o2)nc1C (centres undefined),–,"inconclusive: 31.6 µM [inhibitor, partial curve, poor fit]"
O=C(O)/C=C/C(O)c1ccc(Cl)cc1 (centres undefined),–,"inconclusive: 33.6 µM [inhibitor, single point] and inconclusive: 50.1 µM [inhibitor, partial curve] and inconclusive: 26.7 µM [inhibitor, partial curve]"
O=C(NC(=S)Nc1ccc(Cc2ccncc2)cc1)c1ccccc1,–,"inconclusive: 15.8 µM [inhibitor, single point]"
CCOC(=O)c1cc2c(c(CCO)n1)[C@@H](CCO)N(S(=O)C(C)(C)C)C2 (some centres undefined),–,"inconclusive: 79.4 µM [inhibitor, single point]"
CCS(=O)(=O)c1ccc2oc(Nc3cc(C)cc(C)c3)nc2c1,inactive: 19.2%,–
CC(=O)COc1ccc2c(c1C)O/C(=C\c1ccco1)C2=O,–,"inconclusive: 79.4 µM [inhibitor, partial curve, poor fit]"
CCOC(=O)C1CCCN(c2c(N3CCC(N4CCCCC4)CC3)c(=O)c2=O)C1 (centres undefined),–,"inconclusive: 89.1 µM [inhibitor, single point]"
Cc1ccc(-c2csc(N)n2)cc1,–,"inconclusive: 89.1 µM [inhibitor, partial curve, poor fit]"
O=C(NC1CCCCCC1)c1ccc[nH]c1=S,inactive: -19.9% [at 57.1 µM],–
C[C@@](Cc1ccc(O)c(O)c1)(NN)C(=O)O,–,"inconclusive: 23.8 µM [inhibitor, partial curve, poor fit] and inconclusive: 15.8 µM [inhibitor, full curve]"
Cc1nnc(SCc2ccc(C(=O)c3ccc(Cl)cc3)o2)n1-c1ccccc1,–,"inconclusive: 14.1 µM [inhibitor, full curve]"

SMILES,"activity change, negative = inhibition",Potency
CCCCc1ccc(-n2nc3cc(C)c(NC(=O)Cc4ccccc4)cc3n2)cc1,inactive: -5.26%,–
CCC(C)c1ccccc1NC(=S)NC(=O)c1ccco1 (centres undefined),–,"inconclusive: 50.1 µM [inhibitor, partial curve]"
Cc1cccc(OCc2ccc(-c3nc(C#N)c(NCCN(C)C)o3)o2)c1,inactive: -11%,–
Cc1ccc(CNC(=O)CSc2ccsc2[N+](=O)[O-])cc1,–,active: 50.1 µM
CCOC(=O)c1c(C)sc2c1N(C(=O)CCl)c1cc(Cl)ccc1S2,–,active: 5.01 µM
O=C(NC1CCCCC1)C(c1cccnc1)N(C(=O)CCl)c1cccc(Cl)c1 (centres undefined),–,active: 6.31 µM
CC1=CC(C)(C)Nc2ccc(OC(=O)CN3C(=O)c4cccc5cccc(c45)C3=O)cc21,–,active: 8.91 µM
COc1cc(C2C(C(=O)c3cc4ccccc4o3)=C(O)C(=O)N2CCN2CCOCC2)ccc1OCCC(C)C (centres undefined),–,"inconclusive: 70.8 µM [inhibitor, partial curve]"
Oc1ccc(Cl)cc1C1C=C(c2ccc3c(c2)OCO3)NC(c2ccc(Cl)cc2)N1 (centres undefined),–,"inconclusive: 56.2 µM [inhibitor, partial curve]"
O=C(Nc1nnc(SCc2ccc(F)cc2)s1)C1Cc2ccccc2CN1C(=O)c1ccco1 (centres undefined),–,"inconclusive: 20 µM [inhibitor, full curve]"
Cc1c(Cc2ccccc2)sc(NC(=O)Cc2ccccc2)c1C(N)=O,–,"inconclusive: 31.6 µM [inhibitor, single point]"
CSc1cccc(-n2cc(-c3ccc4c(c3)OCO4)[nH]c2=O)c1,–,"inconclusive: 15.8 µM [inhibitor, full curve, poor fit]"
CCc1ccc(CCC(=O)Nc2nnc(C)s2)o1,–,"inconclusive: 35.5 µM [inhibitor, partial curve]"
O=C1SC(SCc2ccccc2)=N/C1=C\c1ccco1,–,"inconclusive: 17.8 µM [inhibitor, full curve, poor fit]"
CC1CC(C)(C)CC2(C1)NC(=O)N(CC(=O)NCC(c1ccco1)N1CCCCC1)C2=O (centres undefined),inactive: -1.59%,–
C#CCSc1nsc(SCC#C)c1C#N,–,"inconclusive: 25.1 µM [inhibitor, full curve, poor fit]"
O=C(Nc1ccc(S(=O)(=O)N2CCCCC2)cc1)C1CCN(C(=O)c2ccco2)CC1,inactive: 1.1% [at 57.1 µM],–
Brc1nc2ncnc(NCc3ccco3)c2[nH]1,inactive: 24.3% [at 0.0914 µM],–
Cc1ccc([N+](=O)[O-])cc1NC(=S)NC(=O)C(C)(C)C,–,"inconclusive: 10 µM [inhibitor, partial curve, poor fit]"
COc1cccc(CN(Cc2ccco2)c2cnc(S(C)(=O)=O)nc2C(=O)Nc2cccc(Cl)c2C)c1,inactive: 10.2%,–
COc1cc(C(O)CO)ccc1O (centres undefined),–,"inconclusive: 9.47 µM [inhibitor, partial curve, poor fit]"
CCC1S/C(=N/N=C/c2ccco2)N(Cc2ccccc2C)C1=O (centres undefined),inactive: -15.7%,–
CCOc1cc(C2c3c(-c4ccccc4)n[nH]c3C(=O)N2c2ccc(C(=O)O)cc2)ccc1O (centres undefined),–,"inconclusive: 39.8 µM [inhibitor, partial curve, poor fit]"

# — PubChem BioAssay AID588453 (National Center for Advancing Translational Sciences (NCATS), 2011)
